{"source": "paper PMC6919601", "about": "“Identification of Plasmodium dipeptidyl aminopeptidase allosteric inhibitors by high throughput screening” (PLoS ONE, 2019)", "note": "About 230 (0.21%) of roughly 110,000 compounds showed an effect of 50% or more. The list shows a part of the results.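 Also: 30 min substrate incubation versus DMSO and 10 µM JCP410 controls.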"}
{"molecular_target": "DPAP1 (Plasmodium falciparum, UniProt Q8IIJ9)", "sequence (Q8IIJ9 whole entry, looked up)": "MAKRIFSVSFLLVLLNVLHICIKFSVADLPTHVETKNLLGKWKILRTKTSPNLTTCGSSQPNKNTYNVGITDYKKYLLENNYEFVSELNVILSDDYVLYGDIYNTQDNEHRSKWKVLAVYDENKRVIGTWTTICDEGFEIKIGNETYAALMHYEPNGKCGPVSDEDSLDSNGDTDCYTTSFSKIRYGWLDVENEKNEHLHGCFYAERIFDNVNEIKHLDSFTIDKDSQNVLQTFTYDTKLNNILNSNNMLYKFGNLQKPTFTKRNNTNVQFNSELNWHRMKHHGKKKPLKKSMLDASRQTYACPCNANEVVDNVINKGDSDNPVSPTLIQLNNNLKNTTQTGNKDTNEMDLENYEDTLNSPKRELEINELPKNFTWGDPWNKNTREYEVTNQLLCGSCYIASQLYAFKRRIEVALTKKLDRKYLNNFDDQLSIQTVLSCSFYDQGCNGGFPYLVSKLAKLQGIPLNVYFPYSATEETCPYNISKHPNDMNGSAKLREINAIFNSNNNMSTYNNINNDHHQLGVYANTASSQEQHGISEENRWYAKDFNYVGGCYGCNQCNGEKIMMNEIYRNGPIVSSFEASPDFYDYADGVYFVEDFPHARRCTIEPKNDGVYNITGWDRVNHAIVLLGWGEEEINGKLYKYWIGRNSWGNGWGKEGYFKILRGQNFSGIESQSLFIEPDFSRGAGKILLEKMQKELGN", "experiment": "primary screen, percent inhibition; read by cleavage of a fluorogenic dipeptide substrate; higher = more effect of the substance", "design": "species or system P. falciparum D10 trophozoite lysates; single well", "units": {"% Inhibition @ 10 uM": "%"}}
{"smiles": "Cc1nc2c3ccccc3n3c(CCCC(=O)N4CCN(C(=O)c5ccco5)CC4)nnc3n2n1", "% Inhibition @ 10 uM": -4.69}
{"smiles": "N#CCNC(=O)C(CCCc1ccccc1)CS(=O)(=O)Cc1ccccc1", "note": "(centres unmarked)", "% Inhibition @ 10 uM": -5.21}
{"smiles": "Cc1cccc(C)c1NC(=O)CNc1ccccc1", "% Inhibition @ 10 uM": -1.97}
{"smiles": "CN1C(=O)CC(c2ccccc2)C2=C1CC(C)(C)CC2=O", "note": "(centres unmarked)", "% Inhibition @ 10 uM": -2.2}
{"smiles": "CCc1ccc(C2=CC(c3cc(OC)c(OC)c(OC)c3)n3nnnc3N2)cc1", "note": "(centres unmarked)", "% Inhibition @ 10 uM": -9.03}
{"smiles": "CN(CCc1ccccn1)Cc1ccc(C(F)(F)F)cc1", "% Inhibition @ 10 uM": 3.47}
{"smiles": "Cc1ccc(C(=O)NC2CCC(NC(=O)c3ccc(C)cc3)CC2)cc1", "note": "(centres unmarked)", "% Inhibition @ 10 uM": -5.6}
{"smiles": "CC(C)(c1ccccc1)c1ccc(OCCN2CCOCC2)cc1", "% Inhibition @ 10 uM": -0.289}
{"smiles": "CC1=C(C(=O)Nc2ccccc2C)C(c2ccccc2O)NC(=O)N1C", "note": "(centres unmarked)", "% Inhibition @ 10 uM": -5.16}
{"smiles": "O=C(Nc1cccc2c1CCCC2)c1ccccc1Br", "% Inhibition @ 10 uM": 2.13}
{"smiles": "COCc1nn2cc(-c3ccc(C)c(C)c3)nc2s1", "% Inhibition @ 10 uM": 6.85}
{"smiles": "CCS(=O)(=O)c1nc(S(=O)(=O)c2ccc(Cl)cc2)c(N2CCC(O)CC2)s1", "% Inhibition @ 10 uM": 1.15}
{"smiles": "COc1ccc(S(=O)(=O)N2Cc3ccccc3CC2C(=O)NC2CCCCC2)cc1", "note": "(centres unmarked)", "% Inhibition @ 10 uM": 2}
{"smiles": "Cc1ccccc1CN(c1ccc(C(=O)NCC2CCCO2)cc1)S(C)(=O)=O", "note": "(centres unmarked)", "% Inhibition @ 10 uM": 0.245}
{"smiles": "Cc1onc(-c2ccccc2Cl)c1C(=O)Nc1cccc(C(=O)O)c1", "% Inhibition @ 10 uM": -13.3}
{"smiles": "CCOC(=O)c1c(S(=O)(=O)N2CCC(N(C)C3CCCCC3)CC2)c(C)n(C)c1C", "% Inhibition @ 10 uM": -3.39}
{"smiles": "COc1ccc(-n2cc(-c3ccccc3)c3c(N4CCC5(CC4)OCCO5)ncnc32)cc1", "% Inhibition @ 10 uM": -1.62}
{"smiles": "N#Cc1c(NC(=O)c2cc(-c3ccc4c(c3)OCO4)on2)sc2c1CCCC2", "% Inhibition @ 10 uM": -3.77}
{"smiles": "CCc1cc2c(Nc3ccc(OC)cc3)ncnc2s1", "% Inhibition @ 10 uM": -2.48}
{"smiles": "CCCC1CCC(C2=N/C(=C\\c3ccc(OC)cc3)C(=O)O2)CC1", "note": "(centres unmarked)", "% Inhibition @ 10 uM": 3.8}
{"smiles": "OC(c1ccncc1)(c1ccc(Cl)cc1)c1cc[nH]n1", "note": "(centres unmarked)", "% Inhibition @ 10 uM": 3.53}
{"smiles": "CCOc1ccc(CCNC(=O)Cn2nc(CC)n3c(cc4sc(C)cc43)c2=O)cc1OCC", "% Inhibition @ 10 uM": 4.95}
{"smiles": "COc1ccc(S(=O)(=O)Nc2ccc(NC(C)=O)cc2)cc1", "% Inhibition @ 10 uM": -5.54}
{"smiles": "CC(=O)N(CC(O)c1ccccc1)C1CC(=O)N(c2ccc(Cl)cc2)C1=O", "note": "(centres unmarked)", "% Inhibition @ 10 uM": -4.97}
{"smiles": "CC(C)C[C@H](NC(=O)OCc1ccccc1CCc1ccccc1)C(=O)NCC#N", "% Inhibition @ 10 uM": 1.71}
{"smiles": "COc1ccc(/C=C2N=C(/C=C/c3ccc(C)cc3)OC\\2=O)c(OC)c1OC", "% Inhibition @ 10 uM": 4.22}
{"smiles": "CC1=C(c2ccc(C(C)C)cc2)S(=O)(=O)N=C1NCc1ccccc1Cl", "% Inhibition @ 10 uM": 0.623}
{"smiles": "COc1cccc2c1NC(c1cccc(Cl)c1Cl)C1CC=CC21", "note": "(centres unmarked)", "% Inhibition @ 10 uM": 1.27}
{"smiles": "Cc1noc(/C=C/N(C)C)c1S(=O)(=O)N1CC=C(c2ccccc2)CC1", "% Inhibition @ 10 uM": 21.8}
{"smiles": "CC1CCCCC1NC1CCN(C)CC1", "note": "(centres unmarked)", "% Inhibition @ 10 uM": -5.9}
{"smiles": "Cc1ccc2nc3c(c(N)c2c1)CCN3C", "% Inhibition @ 10 uM": 0.266}
{"smiles": "CC(C)(C)NS(=O)(=O)c1ccc(OCC(=O)N2CCCCC2)cc1", "% Inhibition @ 10 uM": 3.04}
{"smiles": "COc1cccc(OC)c1C(=O)Nc1cc(Cl)c(Cl)cc1Cl", "% Inhibition @ 10 uM": 1.38}
{"smiles": "COc1ccc(-c2cc(-c3ccccc3)nc(SC)c2C#N)cc1", "% Inhibition @ 10 uM": -0.216}
{"smiles": "COC(=O)/C(C#N)=C/c1ccc(C)o1", "% Inhibition @ 10 uM": -0.256}
{"smiles": "FC(F)(F)C1=NC(C(F)(F)F)N=C(c2ccccc2)N1", "note": "(centres unmarked)", "% Inhibition @ 10 uM": -3.92}
{"smiles": "CCOC(=O)c1[nH]c(C)c(C(=O)N(C)C)c1C", "% Inhibition @ 10 uM": -1.66}
{"smiles": "CCOC(=O)c1ccc(S(=O)(=O)N2CCOCC2)cc1", "% Inhibition @ 10 uM": 13}
{"smiles": "COc1ccc(C(=O)Nc2ccc(C(=O)NCc3ccco3)cc2)cc1", "% Inhibition @ 10 uM": -6.33}
{"smiles": "O=C(Nc1ccc(-c2nc3ncccc3o2)cc1)c1cccc2ccccc12", "% Inhibition @ 10 uM": -0.865}
{"smiles": "O=C(Nc1cccnc1Cl)C1CCCN(c2ncnc3c2nc2n3CCCCC2)C1", "note": "(centres unmarked)", "% Inhibition @ 10 uM": 5.05}
{"smiles": "Cc1cc(C)c(S(=O)(=O)NCC(=O)Nc2ccc(C(N)=O)cc2)c(C)c1", "% Inhibition @ 10 uM": -2.8}
{"smiles": "C=C(C)CSc1nc(N)c2c3c(sc2n1)COC(C(C)C)C3", "note": "(centres unmarked)", "% Inhibition @ 10 uM": 0.643}
{"smiles": "COc1ccc(C2CC(C(F)(F)F)n3nc(C(=O)NCc4ccccc4Cl)cc3N2)cc1OC", "note": "(centres unmarked)", "% Inhibition @ 10 uM": 7.79}
{"smiles": "COc1ccc2oc(=O)cc(CN(C)Cc3ccccc3)c2c1", "% Inhibition @ 10 uM": -3.49}
{"smiles": "N#Cc1nc(/C=C/c2ccc(F)cc2)oc1N1CCC(C(N)=O)CC1", "% Inhibition @ 10 uM": -0.808}
{"smiles": "CC(NC(=O)C1C2CCC(C2)C1C(=O)O)C1CC2CCC1C2", "note": "(centres unmarked)", "% Inhibition @ 10 uM": 3.44}
{"smiles": "O=C(C1Sc2nnc(-c3ccccc3)n2NC1c1ccccc1)N1CCCC1", "note": "(centres unmarked)", "% Inhibition @ 10 uM": 1.72}
{"smiles": "CNC(=O)C(=O)NCCc1ccc(Cl)cc1", "% Inhibition @ 10 uM": -11.4}
{"smiles": "Cc1cc(Cl)ccc1OC(C)C(=O)NCc1cccnc1", "note": "(centres unmarked)", "% Inhibition @ 10 uM": -11.2}
{"smiles": "COc1ccccc1NC(=O)/C=C1/c2ccccc2CC(C)(C)N1C", "% Inhibition @ 10 uM": 0.345}
{"smiles": "Cc1cc2c(/C=C/C(=O)O)nc(-c3ccccc3)nc2s1", "% Inhibition @ 10 uM": 5.93}
{"smiles": "Cc1nn2c(=O)/c(=C/c3cn(-c4ccccc4)nc3-c3ccc4c(c3)CC(C)O4)sc2nc1=O", "note": "(centres unmarked)", "% Inhibition @ 10 uM": -1.92}
{"smiles": "CCOC(=O)c1c(NC(=O)c2onc(C)c2Cl)sc2c1CCCC2", "% Inhibition @ 10 uM": -0.0115}
{"smiles": "CCCC(=O)c1ccc(C(=O)O)s1", "% Inhibition @ 10 uM": -2.7}
{"smiles": "COc1ccc(CCNC(=O)Cn2nnc(C(=O)NCc3ccc(F)cc3)c2N)cc1OC", "% Inhibition @ 10 uM": -0.00718}
{"smiles": "CNC(=O)/C(=C/c1ccco1)NC(=O)c1ccc(C)cc1", "% Inhibition @ 10 uM": -3.92}
{"smiles": "O=C(CC1Sc2ccccc2NC1=O)Nc1ccccc1", "note": "(centres unmarked)", "% Inhibition @ 10 uM": 4.63}
{"smiles": "Fc1ccc(-c2csc(NCc3ccco3)n2)cc1", "% Inhibition @ 10 uM": 1.74}
{"smiles": "COc1cc2c(cc1OC)C(c1cc(Cl)cc(Cl)c1O)NCC2", "note": "(centres unmarked)", "% Inhibition @ 10 uM": -5.28}
{"smiles": "CCCCNC(=O)CCc1c(C)nc2nc(-c3cc(OC)cc(OC)c3)nn2c1C", "% Inhibition @ 10 uM": 1.26}
{"smiles": "CCCOc1ccccc1C1C(C#N)=C(N)Oc2[nH]nc(-c3ccc(OC)cc3)c21", "note": "(centres unmarked)", "% Inhibition @ 10 uM": -2.88}
{"smiles": "COC(=O)c1[nH]c2c(c1C)C(=O)CCC2", "% Inhibition @ 10 uM": 3.04}
{"smiles": "Cc1nnc(C)n1/N=C\\c1cccc(OCc2ccccc2)c1", "% Inhibition @ 10 uM": -7.9}
{"smiles": "O=C(Nc1ccccc1)C(C(=O)Nc1ccccc1)C12CC3CC(CC(C3)C1)C2", "% Inhibition @ 10 uM": -2.75}
